Z-score data for 28 molecules are collected here from PubChem BioAssay AID488969 (Vanderbilt High Throughput Screening Facility, 2010).

The full ranking holds about 110,000 compounds; the median of “z-score” is about -0.1, and the highest 2% start at about 2. This is one part of the list.

The target in the assay is Metabotropic glutamate receptor 8 (Rattus norvegicus) (UniProt P70579). The assay can be described thus: rat mGluR8 modulators via GIRK flux, primary screen, cell-based, thallium flux, HTS (AID 488969). The settings on record: HEK293 rat mGluR8, GIRK (G protein-gated inwardly rectifying potassium channel) thallium flux, FluoZin2; at 10 µM; stronger effect = higher value; submaximal glutamate (EC20) added with thallium.
UniProt P70579, sequence (P70579 whole entry, looked up): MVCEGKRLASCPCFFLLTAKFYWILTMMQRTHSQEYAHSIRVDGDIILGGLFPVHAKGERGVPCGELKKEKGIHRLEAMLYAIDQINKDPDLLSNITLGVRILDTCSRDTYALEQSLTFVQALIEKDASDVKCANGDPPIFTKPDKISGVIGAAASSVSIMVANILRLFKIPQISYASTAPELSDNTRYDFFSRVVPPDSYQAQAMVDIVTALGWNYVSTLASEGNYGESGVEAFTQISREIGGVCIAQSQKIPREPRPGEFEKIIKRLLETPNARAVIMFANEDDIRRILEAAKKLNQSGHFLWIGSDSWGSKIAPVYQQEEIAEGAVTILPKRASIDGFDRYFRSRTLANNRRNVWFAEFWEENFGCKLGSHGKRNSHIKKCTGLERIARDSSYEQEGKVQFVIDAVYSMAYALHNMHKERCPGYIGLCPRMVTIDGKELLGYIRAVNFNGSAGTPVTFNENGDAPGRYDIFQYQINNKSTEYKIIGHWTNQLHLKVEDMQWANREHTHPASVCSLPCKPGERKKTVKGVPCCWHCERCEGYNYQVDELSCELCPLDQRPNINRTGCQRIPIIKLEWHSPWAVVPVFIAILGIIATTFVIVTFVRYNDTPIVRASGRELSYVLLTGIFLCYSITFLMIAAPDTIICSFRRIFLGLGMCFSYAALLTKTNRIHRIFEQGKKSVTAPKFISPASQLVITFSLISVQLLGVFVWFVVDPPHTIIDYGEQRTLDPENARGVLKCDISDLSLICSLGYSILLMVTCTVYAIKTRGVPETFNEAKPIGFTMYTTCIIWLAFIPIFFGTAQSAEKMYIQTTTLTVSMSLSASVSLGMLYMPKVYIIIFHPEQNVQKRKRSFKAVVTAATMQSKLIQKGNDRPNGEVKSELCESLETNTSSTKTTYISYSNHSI
The molecule `Cc1ccc2c(c1)NC(C(C)(C)C)CO2` (stereo not drawn) had a z-score of -0.154.

`O=C(Nc1cc(Oc2ccccc2)cc([N+](=O)[O-])c1)C12CC3CC(C1)CC(n1cnc(Cl)n1)(C3)C2`: the z-score stood at 0.357.

As to `CCN(CC)C(=O)CSc1nnc(-c2ccccc2)n1-c1ccccc1`, the z-score is -1.03.

Turning to `CCOC(=O)N1CCN(C(=O)c2ccc3c(=O)n4c(nc3c2)CCCCC4)CC1`, the z-score is -0.386.

Turning to `CC(O)C(NS(=O)(=O)c1ccc(Cl)cc1)C(=O)OCc1nnc(-c2ccccc2)o1` (stereo not drawn), the z-score turned out to be 0.126.

As for `O=C(NCC1CCCO1)/C(=C\c1ccc(Cl)cc1)NC(=O)c1ccccc1` (stereo not drawn), the z-score is -0.12.

The molecule `CCCCCCc1cc2cc(-c3nnc(-c4cccc(OC)c4)o3)c(=O)oc2cc1O` showed a z-score of -0.968.

`COC(=O)[C@@H]1C2CCC(C(=O)Nc3ccccc3)(CC2)[C@@H]1C(=O)OC` gave a z-score of -0.52.

Molecule `Cc1cc(C(=O)CSc2nnnn2-c2ccccc2)c(C)n1-c1ccc2c(c1)OCO2` came in with a z-score of 0.453.

The molecule `CCOC(=O)c1cnc(-n2nc(C)cc2C)nc1Nc1cccc(C(=O)O)c1` showed a z-score of 0.146.

On to `CC(=O)c1c(C)n(-c2ccccc2)c2ccc(O)cc12`, for which the z-score turned out to be 0.0908.

On to `O=[N+]([O-])c1ccc(Cl)c(/C=N/Nc2nc(N3CCOCC3)nc(N3CCOCC3)n2)c1`, for which the z-score is -0.357.

For `CCOc1ccc(/C=N/NC(=O)Cc2csc(Nc3cccc(C(F)(F)F)c3)n2)cc1`, the z-score is -0.15.

`Cc1no[n+]([O-])c1COc1cccc(/C=C2\N=C(c3ccccc3)OC2=O)c1` returned a z-score of -0.238.

On to `COc1ccc2nc(NC(=O)c3ccc(Br)s3)sc2c1`, for which the z-score was -0.513.

In turn, `CCOC(=O)CNC(=O)CSc1nnc(-c2ccccc2OC)n1CC` yielded a z-score of -0.377.

The molecule `c1cncc(-c2nc(NCC3COc4ccccc4O3)c3ccccc3n2)c1` (stereo not drawn) displayed a z-score of -0.22.

The molecule `O=C(O)CSc1nnc(C2CC2)n1-c1ccccc1` returned a z-score of 0.28.

As for `Cc1ccc(NC(=O)CC2SC(=O)N(c3ccccc3)C2=O)cc1` (stereo not drawn), the z-score is -0.688.

`O=C(NNc1ccc(C(F)(F)F)cc1[N+](=O)[O-])c1ccc(NS(=O)(=O)c2ccc(F)cc2)cc1` returned a z-score of -0.165.

Consider `CCc1ccc(C(=O)CN(C#N)c2nc(C)cc(C)n2)cc1`, for which the z-score was -0.057.

Molecule `Cc1ccc(/C=C2/NC(=O)N(Cc3ccccc3)C2=O)o1` returned a z-score of -0.0755.

For the molecule `Cc1cccc(N(CC(=O)NC2CCCCC2)C(=O)c2ccc(C)s2)c1`, the z-score is -0.201.

`Cc1cccc(OCc2nnc(SCC(=O)N3CCN(c4ccccc4)CC3)o2)c1C` showed a z-score of 0.206.

Take `O=C(NC(Cc1ccccc1)C(=O)O)/C(=C/c1ccc(F)cc1)NC(=O)c1ccccc1` (stereo not drawn): the z-score was -0.292.

`O=C(NCCO)c1cccc(Cl)c1` had a z-score of 0.181.

`Cc1ccccc1C(=O)N1CCN(c2ccc([N+](=O)[O-])c(NCc3ccco3)c2)CC1` gave a z-score of -1.31.

`CCCS(=O)(=O)N1CCCC(C(=O)N2CCC(Cc3ccccc3)CC2)C1` (stereo not drawn) showed a z-score of 0.446.
